These are yes or no findings as the source states them, for the method shown. In cells and extracts the contact can be indirect. Some results given as binding are weak or reduced against the parent protein; the word gives no strength. Tags and fused reporters may be left off the sequences shown.
B1: HA-RIG-I (receptor, UniProt O95786 1-925)
chain: MTTEQRRSLQAFQDYIRKTLDPTYILSYMAPWFREEEVQYIQAEKNNKGPMEAATLFLKFLLELQEEGWFRGFLDALDHAGYSGLYEAIESWDFKKIEKLEEYRLLLKRLQPEFKTRIIPTDIISDLSECLINQECEEILQICSTKGMMAGAEKLVECLLRSDKENWPKTLKLALEKERNKFSELWIVEKGIKDVETEDLEDKMETSDIQIFYQEDPECQNLSENSCPPSEVSDTNLYSPFKPRNYQLELALPAMKGKNTIICAPTGCGKTFVSLLICEHHLKKFPQGQKGKVVFFANQIPVYEQQKSVFSKYFERHGYRVTGISGATAENVPVEQIVENNDIIILTPQILVNNLKKGTIPSLSIFTLMIFDECHNTSKQHPYNMIMFNYLDQKLGGSSGPLPQVIGLTASVGVGDAKNTDEALDYICKLCASLDASVIATVKHNLEELEQVVYKPQKFFRKVESRISDKFKYIIAQLMRDTESLAKRICKDLENLSQIQNREFGTQKYEQWIVTVQKACMVFQMPDKDEESRICKALFLYTSHLRKYNDALIISEHARMKDALDYLKDFFSNVRAAGFDEIEQDLTQRFEEKLQELESVSRDPSNENPKLEDLCFILQEEYHLNPETITILFVKTRALVDALKNWIEGNPKLSFLKPGILTGRGKTNQNTGMTLPAQKCILDAFKASGDHNILIATSVADEGIDIAQCNLVILYEYVGNVIKMIQTRGRGRARGSKCFLLTSNAGVIEKEQINMYKEKMMNDSILRLQTWDEAVFREKILHIQTHEKFIRDSQEKPKPVPDKENKKLLCRKCKALACYTADVRVIEECHYTVLGDAFKECFVSRPHPKPKQFSSFEKRAKIFCARQNCSHDWGIHVKYKTFEIPVIKIESFVVEDIATGVQTLYSKWKDFHFEKIPFDPAEMSK
B2: HA-MDA5 (receptor, UniProt Q9BYX4 1-1025)
chain: MSNGYSTDENFRYLISCFRARVKMYIQVEPVLDYLTFLPAEVKEQIQRTVATSGNMQAVELLLSTLEKGVWHLGWTREFVEALRRTGSPLAARYMNPELTDLPSPSFENAHDEYLQLLNLLQPTLVDKLLVRDVLDKCMEEELLTIEDRNRIAAAENNGNESGVRELLKRIVQKENWFSAFLNVLRQTGNNELVQELTGSDCSESNAEIENLSQVDGPQVEEQLLSTTVQPNLEKEVWGMENNSSESSFADSSVVSESDTSLAEGSVSCLDESLGHNSNMGSDSGTMGSDSDEENVAARASPEPELQLRPYQMEVAQPALEGKNIIICLPTGSGKTRVAVYIAKDHLDKKKKASEPGKVIVLVNKVLLVEQLFRKEFQPFLKKWYRVIGLSGDTQLKISFPEVVKSCDIIISTAQILENSLLNLENGEDAGVQLSDFSLIIIDECHHTNKEAVYNNIMRHYLMQKLKNNRLKKENKPVIPLPQILGLTASPGVGGATKQAKAEEHILKLCANLDAFTIKTVKENLDQLKNQIQEPCKKFAIADATREDPFKEKLLEIMTRIQTYCQMSPMSDFGTQPYEQWAIQMEKKAAKEGNRKERVCAEHLRKYNEALQINDTIRMIDAYTHLETFYNEEKDKKFAVIEDDSDEGGDDEYCDGDEDEDDLKKPLKLDETDRFLMTLFFENNKMLKRLAENPEYENEKLTKLRNTIMEQYTRTEESARGIIFTKTRQSAYALSQWITENEKFAEVGVKAHHLIGAGHSSEFKPMTQNEQKEVISKFRTGKINLLIATTVAEEGLDIKECNIVIRYGLVTNEIAMVQARGRARADESTYVLVAHSGSGVIEHETVNDFREKMMYKAIHCVQNMKPEEYAHKILELQMQSIMEKKMKTKRNIAKHYKNNPSLITFLCKNCSVLACSGEDIHVIEKMHHVNMTPEFKELYIVRENKALQKKCADYQINGEIICKCGQAWGTMMVHKGLDLPCLKIRNFVVVFKNNSTKKQYKKWVELPITFPNLDYSECCLFSDED

Amino acid sequences for entries named in this document (tags omitted).
UniProt O60260: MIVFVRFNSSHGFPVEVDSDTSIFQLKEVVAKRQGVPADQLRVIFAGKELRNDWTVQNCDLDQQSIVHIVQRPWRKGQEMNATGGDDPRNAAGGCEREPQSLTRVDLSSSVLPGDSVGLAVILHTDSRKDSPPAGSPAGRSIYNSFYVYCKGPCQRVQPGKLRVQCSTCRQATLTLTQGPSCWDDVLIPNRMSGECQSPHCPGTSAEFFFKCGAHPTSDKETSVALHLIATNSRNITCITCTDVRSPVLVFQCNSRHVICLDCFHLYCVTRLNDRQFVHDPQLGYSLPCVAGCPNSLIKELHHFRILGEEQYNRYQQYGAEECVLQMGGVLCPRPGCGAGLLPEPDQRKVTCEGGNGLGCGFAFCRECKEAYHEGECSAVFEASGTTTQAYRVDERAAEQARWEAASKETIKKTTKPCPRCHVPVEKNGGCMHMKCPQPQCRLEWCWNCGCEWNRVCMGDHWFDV

Target: Flag-Parkin (UniProt O60260)
Experiment: co-IP; 293T cells co-transfected, 24 h, untreated or treated with CCCP (10 uM) for 12 h; lysis in 50 mM Tris-HCl pH 7.6, 150 mM NaCl, 0.5% Triton-X-100; anti-Flag agarose at 4 C overnight, washed four times with RIPA buffer; immunoblot

Binder | binding
B1 | binds
B2 | binds

From publication PMC7492610
